Results from PubChem BioAssay AID720709 (National Center for Advancing Translational Sciences (NCATS), 2013).
Hit rate of the full screen: of about 360,000 compounds, about 520 (0.14%) were called active. This list was built around the results that the source calls inconclusive (neither active nor inactive); the mix of calls is not that of the screen. Calls follow the shape of the dose curve; as a rule, active = well fitted inhibition curve with a large enough effect; inconclusive = small, poorly fitted or top-dose-only effect; inactive = no such curve, though single readings can be large or run the other way. Potencies beside an inconclusive call are fits to weak or partial responses and may not hold up.

molecular target: Rap guanine nucleotide exchange factor 3 (Homo sapiens) (UniProt O95398); experiment: qHTS for Antagonist of cAMP-regulated guanine nucleotide exchange factor 3 (EPAC1): primary screen; details: EPAC1 GEF assay, Rap1b-BODIPY-GDP exchange fluorescence; series mostly up to 115 µM; also: nearly all actives have a fitted effect of over 50% in size
Sequence of UniProt O95398 (O95398 whole entry, looked up): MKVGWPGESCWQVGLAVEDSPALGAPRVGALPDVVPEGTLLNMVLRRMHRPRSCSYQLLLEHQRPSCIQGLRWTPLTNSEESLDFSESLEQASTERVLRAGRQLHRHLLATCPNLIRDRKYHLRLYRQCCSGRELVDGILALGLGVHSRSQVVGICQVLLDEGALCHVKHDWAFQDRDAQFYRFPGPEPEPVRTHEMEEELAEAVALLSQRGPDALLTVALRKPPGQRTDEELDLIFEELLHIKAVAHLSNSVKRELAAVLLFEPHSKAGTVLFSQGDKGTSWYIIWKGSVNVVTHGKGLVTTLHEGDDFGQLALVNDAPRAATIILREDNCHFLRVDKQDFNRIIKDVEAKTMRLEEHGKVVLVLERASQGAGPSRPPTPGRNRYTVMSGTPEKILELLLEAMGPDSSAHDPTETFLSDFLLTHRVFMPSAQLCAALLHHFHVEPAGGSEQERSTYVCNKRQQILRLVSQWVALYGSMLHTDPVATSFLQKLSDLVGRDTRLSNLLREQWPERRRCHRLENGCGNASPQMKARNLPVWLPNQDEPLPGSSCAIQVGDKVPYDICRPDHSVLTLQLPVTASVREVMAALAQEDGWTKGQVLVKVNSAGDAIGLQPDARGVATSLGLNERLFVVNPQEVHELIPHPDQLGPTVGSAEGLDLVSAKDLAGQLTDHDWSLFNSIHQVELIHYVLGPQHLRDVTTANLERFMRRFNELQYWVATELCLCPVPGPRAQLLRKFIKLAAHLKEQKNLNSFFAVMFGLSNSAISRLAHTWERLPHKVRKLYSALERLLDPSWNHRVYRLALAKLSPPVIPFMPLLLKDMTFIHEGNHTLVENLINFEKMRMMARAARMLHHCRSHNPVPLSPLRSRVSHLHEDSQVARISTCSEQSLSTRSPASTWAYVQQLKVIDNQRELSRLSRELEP
Potency is read from the fitted curve at half-maximal effect; tags tell the direction and shape of the fitted curve.

Potency, inconclusive:
CC(C)=CCC1=C(OCC(=O)O)C(=O)c2ccccc2C1=O 25.1 µM [inhibitor, full curve]
Cc1cc(C)c2c(c1)NC(C(=O)O)C1CC=CC21 (stereo not given) 4.47 µM [inhibitor, full curve]
O=C(COc1ccc([N+](=O)[O-])cc1)Nc1cccc(C(=O)Nc2ccccc2C(=O)O)c1 79.4 µM [inhibitor, single point]
O=C(O)C1CCCN1S(=O)(=O)c1cccc2nsnc12 (stereo not given) 44.7 µM [inhibitor, single point]
COc1ccc(/C=C(\C#N)C(=O)NCCCn2ccnc2)cc1 39.8 µM [inhibitor, full curve, poor fit]
NC(=O)[C@H]1CC2(CC(c3cccc(NC(=O)[C@H]4CCC(=O)N4)c3)=NO2)CN1C(=O)c1ccccc1 (stereo not given in full) 70.8 µM [inhibitor, partial curve]
O=C(N/N=C/c1cccc(F)c1)c1cc(-c2ccco2)nc2ccccc12 50.1 µM [inhibitor, partial curve]
O=C(CSc1nc2ccccc2c(=O)n1-c1ccccc1)N1CCCc2ccccc21 22.4 µM [inhibitor, partial curve]
CCCNC(=O)C(Cc1ccc(C(F)(F)F)cc1)NC(=O)c1ccc(C#N)cc1 (stereo not given) 25.1 µM [inhibitor, full curve, poor fit]
Cc1cc(C)c(C)c(S(=O)(=O)NCC(=O)Nc2sc3c(c2C(N)=O)CCCC3)c1C 44.7 µM [inhibitor, full curve]
Cn1c(-c2ccco2)n[nH]c1=S 10 µM [inhibitor, partial curve]
COC(=O)CN1C(=O)c2cccc3cccc1c23 100 µM [inhibitor, single point]
O=Cc1c[nH]c2ccc(OCc3ccccc3)cc12 25.1 µM [inhibitor, partial curve, poor fit]
COC1C(CO)OC(n2c3c(Cl)cccc3c3c4c(c5c6cccc(Cl)c6[nH]c5c32)C(=O)NC4=O)C(O)C1O (stereo not given) 39.8 µM [inhibitor, single point]
CN1CCN(c2ccc(CNC[C@H]3O[C@@H](n4cnc5c(=O)[nH]c(N)nc54)[C@H](O)[C@@H]3O)c(F)c2)CC1 100 µM [inhibitor, partial curve]
Cc1ccc(NC(=S)/C(C#N)=C2/Nc3ccccc3S2)cc1 89.1 µM [inhibitor, single point]
CCOC(=O)[C@@H]1[C@H]2COc3ccc(Br)cc3[C@@H]2N2C(=O)N(c3cccc(Cl)c3)C(=O)[C@]12C 3.16 µM [inhibitor, full curve, poor fit]
FC(F)Oc1ccc(NC(=S)NCCc2ccccn2)cc1 2.82 µM [inhibitor, full curve, poor fit]
CCOc1ccc(NS(=O)(=O)c2cc(C)c(C)cc2C)cc1 89.1 µM [inhibitor, single point]
CC(C)CC#Cc1ccc2c(c1)O[C@H](CN(C)C(=O)Cc1ccncc1)[C@H](C)CN([C@H](C)CO)S2(=O)=O 100 µM [inhibitor, single point]
O=C(O)/C=C/c1cn(-c2ccccc2)nc1-c1ccc(-c2ccc([N+](=O)[O-])cc2)o1 89.1 µM [inhibitor, partial curve]
CC(C)c1ccc(C2=NN(c3ccccc3)C(=O)CC2)cc1 3.55 µM [inhibitor, full curve, poor fit]
COc1ccc(OCCn2c(NC(=O)c3ccco3)nc3ccccc32)cc1 50.1 µM [inhibitor, partial curve]
CCOc1ccc(-n2c(=O)[nH]cc(C(=O)Nc3ccc(OC)c(OC)c3)c2=O)cc1 100 µM [inhibitor, single point]
NS(=O)(=O)c1ccc(N/N=C/c2ccccc2C(=O)O)c([N+](=O)[O-])c1 100 µM [inhibitor, single point]
CC(C)C[C@H]1CN([C@@H](Cc2ccc(O)cc2)CN2CCC[C@@H]2CN2C(=O)C(=O)NC[C@@H]2Cc2ccccc2)C(=O)C(=O)N1CC1CCCCCC1 89.1 µM [inhibitor, partial curve]
CC(C)n1cnc2c(NCc3ccccc3)cc(OCC3CCN(C)CC3)cc21 63.1 µM [inhibitor, partial curve, poor fit]
COc1ccc(C2CC(c3cccs3)=NN2C(=O)COC(=O)c2cncc(Br)c2)cc1OC (stereo not given) 3.55 µM [inhibitor, full curve, poor fit]
CCN1/C(=C\c2ccc3ccccc3[n+]2CC)Sc2cc(C)ccc21 10 µM [inhibitor, full curve]
Cc1ccc(-n2cccc2/C=C2/C(=N)N3C(=NC2=O)SN=C3S(C)(=O)=O)cc1Cl 79.4 µM [inhibitor, partial curve, poor fit]

Potency, inactive:
Cn1c(-c2ccc(F)cc2)cnc1SCC(=O)Nc1ccccc1
CC12C(=O)N(c3cccc4cccnc34)C(=O)C1C1C=CC2C1 (stereo not given)
C=CCn1c(-c2csc(-c3ccccc3)n2)n[nH]c1=S
COc1ccc(Cn2c(N)c(C#N)c3nc4ccccc4nc32)cc1OC
CCOC(=O)c1c(C)[nH]c(C(=O)OCC(=O)N2CCCC2=O)c1C
O=C1Cc2ccccc2C(=O)N1Cc1ccccc1
C/C(CC(=O)Nc1ccc(N(C)C)cc1)=N\NC(=O)c1ccc(Cl)cc1Cl
CCOC(=O)C1=C(C)N=C2SC(C(=O)OC)=CC(=O)N2C1c1ccc(F)cc1 (stereo not given)
C=CCN(c1ccccc1)S(=O)(=O)c1cccc(C(=O)Nc2ccc(N3CCOCC3)cc2)c1
COc1cccc(N/N=C/c2cccc(Br)c2O)c1
